We go through 27 molecules from PubChem BioAssay AID212 (DTP/NCI, 2004).

In the assay the test system is BDF1 mice, colon carcinoma 38 sc, T/C %. Briefly: NCI In Vivo Anticancer Drug Screen. Data for tumor model Colon Carcinoma 38 (subcutaneous) in B6D2F1 (BDF1) mice. To be noted: endpoint: median tumor weight (est.), higher = larger tumour. An outline of the steps: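 Compound antitumor activity was assessed in mice carrying transplantable tumors. Survival or tumor size was recorded, and each value is the treated-group measurement divided by that of the vehicle-treated control group.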

The mark [1] stands for this setting: dose: 12.5 mg/kg/injection, schedule: Q07DX002 (ip), vehicle: saline.
[2] abbreviates: dose: 50.0 mg/kg/injection, schedule: Q07DX002 (ip), vehicle: saline.
Setting [3] is: dose: 100.0 mg/kg/injection, schedule: Q07DX002 (ip), vehicle: saline.
Setting [4] is: dose: 50.0 mg/kg/injection, schedule: Q07DX002 (ip), vehicle: saline with Tween-80.
Where [5] appears, read: dose: 25.0 mg/kg/injection, schedule: Q07DX002 (ip), vehicle: saline with Tween-80.
The mark [6] stands for this setting: dose: 100.0 mg/kg/injection, schedule: Q07DX002 (ip), vehicle: saline with Tween-80.
The mark [7] stands for this setting: dose: 12.5 mg/kg/injection, schedule: Q07DX002 (ip), vehicle: saline with Tween-80.

Structures are written as SMILES. Records with an inconclusive call do not appear. Certain results were filed several times, with different values. This is not the full list of results. There may be further records. Values given together are repeats in other runs, samples, wells, individuals or studies.

On to `CCC[CH2][Sn]1([CH2]CCC)[O]C2C(CO)OC(n3ccc(N)nc3=O)C2[O]1` (stereo not given), for which the T/C (dose: 0.78 mg/kg/injection, schedule: Q07DX002 (ip), vehicle: Klucel (hydroxypropylcellulose) (HPC)) was 65 % of control and 104 % of control; the T/C (dose: 3.12 mg/kg/injection, schedule: Q07DX002 (ip), vehicle: Klucel (hydroxypropylcellulose) (HPC)) is 73 % of control and 103 % of control; the T/C (dose: 6.25 mg/kg/injection, schedule: Q07DX002 (ip), vehicle: Klucel (hydroxypropylcellulose) (HPC)) is 54 % of control and 101 % of control; the T/C (dose: 12.5 mg/kg/injection, schedule: Q07DX002 (ip), vehicle: Klucel (hydroxypropylcellulose) (HPC)) is 38 % of control and 106 % of control.
Turning to `C=C1CC2(OC1=O)C(=O)N(C)c1ccc(I)cc12` (stereo not given), the T/C is 98 % of control and 181 % of control under setting [1]; 77 % of control and 115 % of control under setting [2]; 70 % of control and 101 % of control under setting [3].
In the case of `CC1c2ccccc2Cn2cc3c(c21)C(=O)c1cccc(OP(=O)(O)OCc2ccccc2)c1C3=O` (stereo not given), the T/C runs as follows: (dose: 1.0 mg/kg/injection, schedule: Q01DX020 (ip), vehicle: saline) 31 % of control and 99 % of control; (dose: 2.0 mg/kg/injection, schedule: Q01DX020 (ip), vehicle: saline) 18 % of control and 113 % of control; (dose: 4.0 mg/kg/injection, schedule: Q01DX020 (ip), vehicle: saline) 19 % of control and 112 % of control.
For `C/C(=N/NC(N)=S)c1ccc2ccccc2c1`, the T/C under setting [4] is 28 % of control and 61 % of control.
As for `CC(=O)OC1C2OC3C=C(C)CCC3(CO)C(C)(C1OC(C)=O)C21CO1` (stereo not given), the T/C (dose: 8.0 mg/kg/injection, schedule: Q07DX003 (ip), vehicle: saline) is 38 % of control and 64 % of control.
With `COC(=O)C(F)C(Br)C(=O)OC` (stereo not given), the T/C was 116 % of control and 155 % of control under setting [5]; 90 % of control and 179 % of control under setting [4].
Regarding `CC(=O)NCCCCCCNC(C)=O`, the T/C is, setting by setting: under setting [2], 83 % of control and 113 % of control; (dose: 800.0 mg/kg/injection, schedule: Q07DX002 (ip), vehicle: saline) 77 % of control and 153 % of control.
For the molecule `O=C1N(Cl)C(=O)C(c2ccc(Cl)cc2)(c2ccc(Cl)cc2)N1Cl`, the T/C under setting [4] is 59 % of control, 76 % of control, 99 % of control; the T/C under setting [6] is given as 64 % of control, 97 % of control, 101 % of control; the T/C (dose: 200.0 mg/kg/injection, schedule: Q07DX002 (ip), vehicle: saline with Tween-80) is 58 % of control, 78 % of control, 124 % of control; the T/C (dose: 400.0 mg/kg/injection, schedule: Q07DX002 (ip), vehicle: saline with Tween-80) is given as 42 % of control, 58 % of control, 79 % of control.
On to `O=C(O)CCCc1ccc(N(CCCl)CCCl)cc1`, for which the T/C is reported as 74 % of control, 96 % of control, 117 % of control (dose: 7.5 mg/kg/injection, schedule: Q07DX002 (ip), vehicle: Klucel (hydroxypropylcellulose) (HPC)) and 41 % of control, 59 % of control, 78 % of control (dose: 30.0 mg/kg/injection, schedule: Q07DX002 (ip), vehicle: Klucel (hydroxypropylcellulose) (HPC)).
For `O=C(Nc1ccccc1)c1c(O)[nH]c(=S)[nH]c1=O`, the T/C (dose: 56.0 mg/kg/injection, schedule: Q07DX002 (ip), vehicle: saline with Tween-80) is 70 % of control and 120 % of control.
In the case of `CCOC(=O)[C@]1(Br)CC[C@@]1(Br)C(=O)OCC`, the T/C under setting [5] is 60 % of control and 112 % of control.
For `CC(=O)OCC1OC(n2ccc(N)nc2=O)C(OC(C)=O)C1OC(C)=O` (stereo not given), the T/C by setting is: under setting [3], 68 % of control and 112 % of control; (dose: 200.0 mg/kg/injection, schedule: Q07DX002 (ip), vehicle: saline) 56 % of control and 124 % of control; (dose: 400.0 mg/kg/injection, schedule: Q07DX002 (ip), vehicle: saline) 38 % of control and 72 % of control.
As to `Nc1ccc(C(OC(=O)c2cc3ccccc3c(Cc3c(O)c(C(=O)OC(c4ccc(N)cc4)(c4ccc(N)cc4)c4ccc(N)cc4)cc4ccccc34)c2O)(c2ccc(N)cc2)c2ccc(N)cc2)cc1`, under setting [7], the T/C was 88 % of control and 117 % of control.
On to `CCOC(=O)CNC(=O)Sc1ccc(C(C)(C)C)cc1`, for which, for the setting “dose: 50.0 mg/kg/injection, schedule: Q07DX002 (ip), vehicle: Klucel (hydroxypropylcellulose) (HPC)”, the T/C was 88 % of control and 121 % of control.
`NC(Cc1ccc(N(CCCl)CCCl)cc1)C(=O)O` (stereo not given): the T/C is recorded as 66 % of control, 87 % of control, 112 % of control (dose: 2.0 mg/kg/injection, schedule: Q07DX002 (ip), vehicle: Klucel (hydroxypropylcellulose) (HPC)) and 64 % of control, 92 % of control, 95 % of control (dose: 4.0 mg/kg/injection, schedule: Q07DX002 (ip), vehicle: Klucel (hydroxypropylcellulose) (HPC)).
`C=C(OC1C(C)=C2C(C1OC(=O)CCCCCCC)C(C)(OC(C)=O)CC(OC(=O)CCC)C1(O)C2OC(=O)C1(C)O)/C(C)=C/C` (stereo not given): the T/C (dose: 0.22 mg/kg/injection, schedule: Q07DX002 (ip), vehicle: Klucel (hydroxypropylcellulose) (HPC)) was 110 % of control and 156 % of control; the T/C (dose: 0.42 mg/kg/injection, schedule: Q07DX002 (ip), vehicle: Klucel (hydroxypropylcellulose) (HPC)) is listed as 11 % of control, 86 % of control, 102 % of control; the T/C (dose: 3.37 mg/kg/injection, schedule: Q07DX002 (ip), vehicle: Klucel (hydroxypropylcellulose) (HPC)) was 56 % of control and 176 % of control.
In the case of `NC(=O)c1ncn(C2OC(CO)C(O)C2O)c1O` (stereo not given), the T/C (dose: 100.0 mg/kg/injection, schedule: Q07DX002 (ip), vehicle: Klucel (hydroxypropylcellulose) (HPC)) is 49 % of control and 109 % of control.
In the case of `NC(=O)c1ncn2c(=O)n(CCCl)nnc12`, the T/C was 21 % of control and 85 % of control under setting [1]; 2 % of control and 31 % of control under setting [2].
Regarding `CN(C)C=O`, the T/C under setting [3] is 60 % of control and 108 % of control.
As for `COc1cc(NCc2ccc3nc(N)nc(N)c3c2C)cc(OC)c1OC`, the T/C was 152 % of control and 198 % of control (dose: 3.75 mg/kg/injection, schedule: Q07DX002 (ip), vehicle: sodium bicarbonate); 75 % of control and 150 % of control (dose: 7.5 mg/kg/injection, schedule: Q07DX002 (ip), vehicle: sodium bicarbonate); 110 % of control and 166 % of control (dose: 15.0 mg/kg/injection, schedule: Q07DX002 (ip), vehicle: sodium bicarbonate); 37 % of control and 118 % of control (dose: 30.0 mg/kg/injection, schedule: Q07DX002 (ip), vehicle: sodium bicarbonate); 15 % of control and 48 % of control (dose: 60.0 mg/kg/injection, schedule: Q07DX002 (ip), vehicle: sodium bicarbonate).
Consider `BrC[P+](CBr)(CBr)CBr`, for which the T/C runs as follows: under setting [7], 29 % of control and 92 % of control; under setting [5], 50 % of control and 159 % of control.
For `Cc1c2cc[n+](CCN3CCCCC3)cc2c(C)c2c1[nH]c1ccc(O)cc12`, the T/C by setting is: under setting [1], 53 % of control and 116 % of control; under setting [2], 38 % of control and 88 % of control.
As for `NS(=O)(=O)OCCCCCCCOS(N)(=O)=O`, the T/C by setting is: under setting [4], 52 % of control and 87 % of control; under setting [6], 27 % of control and 62 % of control.
As to `C[C@H](N)C(=O)N[C@@H]1[C@H]2C(=C(O)C[C@@H](O)[C@@H]2O)C(=O)O[C@]1(C)C(Cl)Cl`, the T/C runs as follows: (dose: 0.75 mg/kg/injection, schedule: Q07DX002 (ip), vehicle: Klucel (hydroxypropylcellulose) (HPC)) 91 % of control and 120 % of control; (dose: 1.5 mg/kg/injection, schedule: Q07DX002 (ip), vehicle: Klucel (hydroxypropylcellulose) (HPC)) 40 % of control and 72 % of control.
With `CC(CN1CC(=O)NC(=O)C1)N1CC(=O)NC(=O)C1` (stereo not given), the T/C runs as follows: (dose: 12.5 mg/kg/injection, schedule: Q07DX003 (ip), vehicle: Klucel (hydroxypropylcellulose) (HPC)) 60 % of control and 112 % of control; (dose: 100.0 mg/kg/injection, schedule: Q07DX003 (ip), vehicle: Klucel (hydroxypropylcellulose) (HPC)) 47 % of control and 78 % of control.
With `CCC(c1ccc(OC(=O)Cc2ccc(N(CCCl)CCCl)cc2)cc1)C(CC)c1ccc(OC(=O)Cc2ccc(N(CCCl)CCCl)cc2)cc1` (stereo not given), the T/C (dose: 150.0 mg/kg/injection, schedule: Q07DX002 (ip), vehicle: saline with Tween-80) is reported as 60 % of control, 114 % of control, 187 % of control.
Consider `C=C1C(=O)C23[C@H](O)C1CC[C@H]2[C@]12COC3(O)[C@@H](O)[C@@H]1C(C)(C)CC[C@@H]2O`, for which the T/C under setting [5] was 62 % of control and 103 % of control.
